Assay results published in article PMC12040169 (PLOS Biology, 2025).
Some of the results follow.

Tested on: T1, C. trachomatis L2/434/Bu expressing GFP (CTL2-GFP)
T1 construct: L2/434/Bu GFP intracellular growth in HeLa cells
Parameters: species or system HeLa; C. trachomatis total inclusion area by high-content imaging, normalised to DMSO
Details: total inclusion area; 28.5 h, 10 µM; inhibitor
Summary of the method: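 Post-fluorescence-read fixation, DNA staining with Hoechst and high-content imaging; GFP inclusion area and number per well, and nuclei counts, used as proxies for bacterial growth and host viability.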

Row | Compound | % of control remaining
1 | CSc1nc2n(n1)C(C)C1=C(CCCC1=O)N2 (centres unmarked) [CBK288169] | 86.282
2 | COc1ccc(Cc2nc(C3CC3)n(CC(F)(F)F)n2)cc1 [CBK307686] | 43.8128
3 | CCCN1C(=O)c2ccc(C(=O)Nc3cc(C(=O)O)cc(C(=O)O)c3)cc2C1=O [CBK266441] | 117.713
4 | CC(C)c1csc(NC(=O)CC2CCN(C(=O)CC3CCCCC3)CC2)n1 [CBK285963] | 114.367
5 | CCCCCOc1ccc(Nc2cc(-c3ccccc3N(C)C)ncn2)cc1 [CBK090890] | 64.2843
6 | COc1ccc(N2CCN(c3cc(-c4cccc5ccccc45)ncn3)CC2)cc1OC [CBK091022] | 16.1322
7 | COc1ccc(-c2nc(C3CCNCC3)n3ccccc23)cc1 [CBK035971] | 84.1489
8 | O=C(Nc1sc2c(c1C(=O)NCC1CCCO1)CCCC2)c1ccccc1[N+](=O)[O-] (centres unmarked) [CBK264608] | 100.51
9 | Cc1ccc(-c2csc3ncnc(Cl)c23)cc1 [CBK287765] | 34.1609
10 | Cc1cc(C(C)(C)C)oc1C(=O)N1CCn2c(nnc2C2CC2)C1 [CBK283771] | 93.5416
11 | O=C(Nc1ccccc1C(F)(F)F)N1CCN(c2ccccc2Cl)CC1 [CBK045081] | 96.9567
12 | Cc1c(C(=O)NCc2cc(C3CC3)[nH]n2)[nH]c2c(Cl)cccc12 [CBK282533] | 123.577
13 | Nc1csc(C2CCOCC2)n1 [CBK019258] | 94.5066
14 | CCc1cccc(NC(=O)CCc2ccccc2)c1 [CBK263637] | 72.2663
15 | COc1ccc(S(=O)(=O)Nc2nccnc2-c2ccc(CN3C(=O)CCC3=O)cc2)cc1 [CBK050699] | 75.266
16 | OC1(c2cccnc2F)CCN(Cc2cccc(F)c2F)CC1 [CBK284375] | 69.7826
17 | Cc1nc2n(n1)C1=CC(C)(C)CC(=O)C1=NN2 [CBK019050] | 78.674
18 | O=C(Cc1cc(Cl)ccc1C(F)(F)F)Nc1ccc2ncccc2c1 [CBK159802] | 104.224
19 | CC(Sc1nc(-c2cccnc2)ccc1C#N)C(=O)O (centres unmarked) [CBK267452] | 116.956
20 | CN(C)/C=N/c1nc(=O)n([C@H]2CC(O)[C@@H](CO)O2)cc1/C=C/C(=O)NCCCCCCNC(=O)C(F)(F)F (some centres unmarked) [CBK201330] | 92.0153
21 | Cc1noc(C)c1NC(=O)c1nccc2ccccc12 [CBK200310] | 88.1127
22 | Cc1cc(C)nc(Nc2n[nH]c(COc3ccccc3)n2)n1 [CBK268016] | 105.451
23 | Cc1ccc(Nc2nc(N(C)C)nc3[nH]ncc23)cc1 [CBK288098] | 92.5966
